Hit rate of the full screen: of about 310,000 compounds, about 14,000 (4.5%) showed an effect of 50% or more. The effect is printed as a negative number. The list shows a part of the results.
biological target: human ether-à-go-go-related gene (hERG) potassium channel (human, UniProt Q12809); test: primary screen, population patch clamp on CHO cells stably expressing hERG
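Note: peak tail current of the secondary pulse compared with the same well before compound.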

human ether-à-go-go-related gene (hERG) potassium channel, sequence (Q12809 whole entry, looked up): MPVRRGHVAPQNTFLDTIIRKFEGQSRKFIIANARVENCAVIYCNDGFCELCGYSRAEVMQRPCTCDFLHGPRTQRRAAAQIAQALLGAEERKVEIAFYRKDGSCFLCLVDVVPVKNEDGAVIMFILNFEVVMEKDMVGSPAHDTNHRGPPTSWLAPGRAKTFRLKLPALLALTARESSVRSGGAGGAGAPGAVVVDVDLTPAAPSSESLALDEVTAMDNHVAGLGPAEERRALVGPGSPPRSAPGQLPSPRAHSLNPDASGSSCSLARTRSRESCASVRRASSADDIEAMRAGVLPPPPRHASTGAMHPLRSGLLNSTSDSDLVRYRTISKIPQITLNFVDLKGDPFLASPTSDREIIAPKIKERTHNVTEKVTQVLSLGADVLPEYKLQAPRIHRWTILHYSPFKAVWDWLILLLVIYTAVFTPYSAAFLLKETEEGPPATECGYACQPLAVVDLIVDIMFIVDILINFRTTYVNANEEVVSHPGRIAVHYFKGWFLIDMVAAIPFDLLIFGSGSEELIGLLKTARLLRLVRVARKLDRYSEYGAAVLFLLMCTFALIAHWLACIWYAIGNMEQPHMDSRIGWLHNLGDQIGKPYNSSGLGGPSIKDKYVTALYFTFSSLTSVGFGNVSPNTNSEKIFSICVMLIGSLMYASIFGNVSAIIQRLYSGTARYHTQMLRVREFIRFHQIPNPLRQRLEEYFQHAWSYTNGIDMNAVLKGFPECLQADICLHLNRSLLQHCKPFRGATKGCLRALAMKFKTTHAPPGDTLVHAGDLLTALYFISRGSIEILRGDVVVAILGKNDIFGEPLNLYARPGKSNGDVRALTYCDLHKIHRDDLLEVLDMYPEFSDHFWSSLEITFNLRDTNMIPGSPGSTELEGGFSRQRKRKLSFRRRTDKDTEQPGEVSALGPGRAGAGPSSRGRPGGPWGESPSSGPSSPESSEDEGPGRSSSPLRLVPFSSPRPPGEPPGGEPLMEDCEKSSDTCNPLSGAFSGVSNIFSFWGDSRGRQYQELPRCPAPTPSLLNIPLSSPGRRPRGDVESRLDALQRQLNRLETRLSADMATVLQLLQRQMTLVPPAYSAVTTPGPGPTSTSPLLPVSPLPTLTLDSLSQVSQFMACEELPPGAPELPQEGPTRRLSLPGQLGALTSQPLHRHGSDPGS

SMILES	hERG current change (%, negative = inhibition) at 10uM
CCOC(=O)c1ccc(NC(=O)c2sc3nc4n(c(=O)c3c2C)CCC4)cc1	8.82%
O=C(Nc1ccccc1)C(O)C(O)C(=O)Nc1ccccc1 (stereo not drawn)	16.8%
Cc1sc(-c2ccncc2)nc1OC(=O)c1ccccc1	-0.792%
O=C(Nc1ccc(S(=O)(=O)N2CCOCC2)cc1)c1ccc2c(c1)S(=O)(=O)c1ccccc1C2=O	18.7%
Cc1cc(Nc2nc(Cl)c(Cl)cc2Cl)n(-c2ccccc2)n1	11.7%
O=C(CSc1nnc(Cc2ccccc2)o1)Nc1cccc(F)c1	-11.8%
CC(=O)Cn1ncc(N2CCOCC2)c(Cl)c1=O	4.26%
COc1cccc(Nc2ncnc3sc(C)cc23)c1.Cl	-8.64%
COP(=O)(OC)Oc1ccc(C(O)C(Cl)(Cl)Cl)cc1 (stereo not drawn)	15.1%
COc1ccccc1NC(=O)N(Cc1ccco1)Cc1cc2cccc(C)c2[nH]c1=O	-18%
CCc1[nH]nc2c1C(c1cccc(OC(=O)N3CCOCC3)c1)C(C#N)=C(N)O2 (stereo not drawn)	12.5%
CCOC(=O)[C@@H]1[C@H]2COc3ccccc3[C@H]2N2C(=O)N(c3ccc(C(F)(F)F)cc3)C(=O)[C@]12C	14.5%
CC(=O)N1N=C(c2ccc(NS(C)(=O)=O)cc2)CC1c1ccc2nccnc2c1 (stereo not drawn)	-63.2%
Cc1ccc(C(=O)NC(NC(=O)c2ccc(C)cc2)C(Cl)Cl)cc1	7.41%
CCCC(O)(CCC)C(=O)NNc1ccccc1	12.4%
O=C(CN1N=C(c2ccccc2)CCC1=O)NCc1cccs1	13.9%
Nc1nc(N2CCCCC2)nc(N2CCCCC2)n1	-78.2%
CCCn1c(=S)[nH]c2cc(C(=O)N3CCN(C4CCCCC4)CC3)ccc2c1=O	-9.29%
COC(=O)CCC(=O)N1CCCC(CO)(Cc2ccccc2F)C1 (stereo not drawn)	6.35%

SMILES	hERG current change (%, negative = inhibition) at 10uM
Cc1ccc(NC(=O)CCC(=O)Nc2nnc(C3CCCCC3)s2)cc1	18.4%
O=C(NCC1CCCO1)/C(=C\c1cccc([N+](=O)[O-])c1)NC(=O)c1ccccc1 (stereo not drawn)	-33%
CCCNC(=O)c1onc(CS(=O)(=O)c2cccc(OC)c2)c1C(=O)NCCC	-12.5%
CC(=O)n1cc(Nc2ccccc2C(=O)O)c2ccccc21	12.3%
O=C(NC(=S)Nc1ccc(N2CCOCC2)c(Cl)c1)c1cccs1	19.8%
Br.COc1ccc(C2=CSC3=NCCN23)cc1Br	-50.7%
CC(=O)Nc1ccc(NC(=O)/C(Cl)=C/c2ccccc2)cc1	2.65%
COc1ccccc1C1CC(c2ccccc2)=NN1S(=O)(=O)c1ccccc1 (stereo not drawn)	12%
Cc1cc(C)c2c(-n3cccc3)nn(CC#N)c2n1	11.9%
CC1CCC(NC(=O)Nc2cccs2)CC1 (stereo not drawn)	26.1%
O=C(C1CCCN(S(=O)(=O)c2cc(Cl)ccc2Cl)C1)N1CCOCC1 (stereo not drawn)	-33.2%
COc1ccc(N)c2c1OCCC2=O	-6.63%
Nc1nc2n(n1)C(c1cccc(Cl)c1)CC(c1ccc(F)cc1)N2 (stereo not drawn)	-27.3%
CC(=O)c1cnc2nc(SCc3ccccc3)nn2c1C	0.852%
O=C(CN1C(=O)COc2ccc(Cl)cc21)Nc1ccc(N2CCOCC2)cc1	0.968%
Cc1ccc(S(=O)(=O)Nc2ccc3c(c2)ncn3C(C)(C)C)cc1	-27.2%
COc1cc(C(=O)NC2CCCc3ccccc32)cc(OC)c1OC (stereo not drawn)	4.25%
CC1=CC(C)(C)N2C(=O)C3(C(C#N)=C(N)Oc4cc(C)oc(=O)c43)c3cccc1c32 (stereo not drawn)	0.638%
COc1cccc(C2C3=C(N=C4SCC(=O)N42)c2ccccc2CC3)c1OC (stereo not drawn)	-5.79%

SMILES	hERG current change (%, negative = inhibition) at 10uM
O=C(NC1CCC(O)CC1)c1ccccc1OCc1ccc(F)cc1 (stereo not drawn)	-3.52%
CCSCc1nnc(SCC(=O)Nc2cc(F)ccc2C)n1C	5.33%
CCOc1ccc2nc(Nc3nc(CSc4nnnn4-c4ccccc4)cc(=O)[nH]3)nc(C)c2c1	-7.36%
CC1(C)NC(=O)N(CCCOc2ccc3c(c2)CCC3)C1=O	-12%
COc1ccc(S(=O)(=O)N2CCN(Cc3ccccc3[N+](=O)[O-])CC2)cc1	-15.2%
Cc1ccc(C)c(NC(=O)c2ccccc2O)c1	9.07%
C=C(C)C(=O)N1CC2(CC(c3cccc(NC(=O)/C=C\C)c3)=NO2)C[C@H]1C(N)=O (stereo partly drawn)	7.33%
O=S(=O)(c1cccc(-c2cn3cccnc3n2)c1)N1CCCCCC1	-23.4%
Cc1ccc(NC(=O)[C@@H]2CCCN2C(=O)[C@@H]2Cc3ccccc3CN2)c(C)c1	-7.91%
N#Cc1nnn(-c2ccc(Cl)cc2)c1N	11.6%
COc1ccccc1/C=C/C(=O)Nc1cccnc1Cl	21.8%
COc1cc(/C=N/NC(=O)c2cc(-c3ccccc3C)nc3ccccc23)cc(OC)c1O	-9.98%
O=c1[nH]c(O)c(C=Nc2cc(F)cc(F)c2)c(=O)[nH]1	10.4%
O=C(Nc1ccc2c(c1)OCCO2)c1cccc(Br)c1	-3.1%
O=C(Nc1ccc(F)cc1)C(=O)c1cn(CC(=O)N2CCOCC2)c2ccccc12	9.49%
O=S(=O)(c1cccc(Cl)c1)N1CCC(c2nc3ccccc3[nH]2)CC1	2.21%
Cc1ccc(S(=O)(=O)c2nnn3c2nc(NC2CCN(Cc4ccccc4)CC2)c2ccccc23)cc1C	4.27%
O=C(COc1ccc2c(c1)OCO2)Nc1nnc(Cc2ccccc2)s1	38.3%
O=C(c1ccco1)N1CCN(C(c2ccccn2)c2nnnn2C2CCCC2)CC1 (stereo not drawn)	-36.9%

From article PMC4336329 (PLoS ONE, 2015)
